These are yes or no findings as the source states them, for the method shown. For some of these results: Binding seen in cells or lysates may run through a third protein. Some entries that bind do so weakly or less than the wild type. For some of these results: Tags and fused reporters may be left off the sequences shown.
Assays:
[1] = biological target: T1, RPW8.1 fused to the Gal4 DNA-binding domain (BD) of pGBKT7 (Arabidopsis (accession Ms-0)) (UniProt Q9C5Z7); assay: two-hybrid; RPW8.1 or RPW8.2 on the Gal4 BD (pGBKT7) as bait, ACO proteins and fragments on the Gal4 AD (pGADT7) as prey; growth on SD/-Ade/-His/-Leu/-Trp with X-alpha-gal (40 ug/ml) and Aureobasidin A (200 ng/ml), photographed after 3 d
T1 sequence: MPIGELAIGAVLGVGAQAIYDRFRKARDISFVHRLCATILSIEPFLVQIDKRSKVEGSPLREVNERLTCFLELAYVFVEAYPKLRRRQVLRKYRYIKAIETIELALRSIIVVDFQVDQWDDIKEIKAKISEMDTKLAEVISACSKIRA

By UniProt entry, the sequences of proteins in these tests, tags left out.
UniProt Q06588: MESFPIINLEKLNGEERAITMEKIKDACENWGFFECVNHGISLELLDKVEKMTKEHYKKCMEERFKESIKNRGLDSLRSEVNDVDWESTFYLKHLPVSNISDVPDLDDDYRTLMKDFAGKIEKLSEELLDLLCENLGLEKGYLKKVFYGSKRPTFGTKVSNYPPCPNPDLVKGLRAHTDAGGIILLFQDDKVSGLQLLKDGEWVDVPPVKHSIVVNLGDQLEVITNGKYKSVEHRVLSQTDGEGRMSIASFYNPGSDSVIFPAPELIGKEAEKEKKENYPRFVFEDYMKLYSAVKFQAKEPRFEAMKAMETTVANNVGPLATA
UniProt Q41931: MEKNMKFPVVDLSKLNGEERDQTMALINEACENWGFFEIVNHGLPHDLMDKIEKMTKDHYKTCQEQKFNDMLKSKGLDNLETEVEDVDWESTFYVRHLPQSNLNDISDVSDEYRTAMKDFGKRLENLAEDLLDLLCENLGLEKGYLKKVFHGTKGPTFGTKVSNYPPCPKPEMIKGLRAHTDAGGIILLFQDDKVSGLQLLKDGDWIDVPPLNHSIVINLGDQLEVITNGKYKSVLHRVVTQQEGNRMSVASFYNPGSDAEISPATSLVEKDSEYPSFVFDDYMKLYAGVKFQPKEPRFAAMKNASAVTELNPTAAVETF

[2] = biological target: T2, RPW8.1-YC (Arabidopsis (accession Ms-0)) (UniProt Q9C5Z7); assay: split reporter; BiFC: YN- and YC-tagged proteins coexpressed in N. benthamiana leaves; YFP fluorescence by confocal microscopy 2 d after infiltration
T2 sequence: T1 sequence

[3] = biological target: T3, YN-RPW8.1 (Arabidopsis (accession Ms-0)) (UniProt Q9C5Z7); assay: as above
T3 sequence: T1 sequence

Row | binding [1] | Substance | also measured
1 | binds | 1-aminocyclopropane-1-carboxylate oxidase 4 (ACO4), full length, fused to the Gal4 activation domain (AD) of pGADT7 (from UniProt Q06588 1-323) (enzyme) | 
2 |  | YN-ACO4 (from UniProt Q06588 1-323) (enzyme) | binding [2]: binds
3 | no binding | ACO2 in the GAL4 activation domain (AD) vector (from UniProt Q41931 1-320) (enzyme) | 
4 |  | ACO4-YC (from UniProt Q06588 1-323) (enzyme) | binding [3]: binds

— publication PMC7754472
